# Test results from the supplement of paper PMC11417369.
# ± gives the standard deviation of the averaged measurements. The list shows a part of the results.
# Test system: PfAP2-LT AP2 domain (GST-tagged)
# Assay: gcPBM binding intensity (ln(normalized median fluorescence intensity)); higher = stronger DNA binding
# Method in brief: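 Plasmodium falciparum DNA-binding domains carrying a GST tag were expressed in E. coli and applied for 1 h, at about 25 μg on average, to an Agilent 4 × 180k array. The array held primer-extended double-stranded 36-bp intergenic genomic probes together with negative controls, and binding took place in 1× PBS with 1% milk, 0.2 mg/ml BSA, 0.5% salmon testes DNA and 0.03% Triton X-100. An Alexa488 anti-GST antibody detected bound protein, and the array was scanned at 488 nm. Binding intensity is taken as the highest Masliner-normalised natural-log median intensity across replicate spots of either probe orientation.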
row,Sequence,gcPBM binding intensity (ln)
1,AATATAAGATTATTATGTACATAATAAATATGTATT [XGTACX_site4773],8.79 ± 0.4
2,ATATAATATCTGTATACACACATATTATATAATATT [CACACA_site5940],9.09 ± 0.33
3,CACATTTCTGTAGTTGCATGTAGAAAAAAAAAAAAA [TGCATGCA_site810],8.51 ± 0.44
4,AATACAATTGAAAATTGTACTTTGTTTTTTATAAAT [XGTACX_site4080],8.42 ± 0.4
5,TTTTGAGAAAAAATAAAATAATAAATAAAAATACAT [XGTACX_negctrl_site66],8.52 ± 0.48
6,CATATAATAAATAATACACACATATTGGAAATATAT [CACACA_site3212],9.08 ± 0.38
7,TTTATTTATTTATATTTTTTTATATAATTTATATAT [GTGCAC_negctrl_site301],8.54 ± 0.46
8,AAAGGTATATATGTGTGTACATATATATATATATAT [XGTACX_site5629],9.955 ± 0.0071
9,AAAAATAAAAAAAAATTAAAATATATATATTTTGTT [TGCATGCA_negctrl_site102],8.45 ± 0.44
10,AACATATTTATATACACACACATATTTATATGAAAT [CACACA_site6268],9.32 ± 0.34
11,GAGAGGATACATACATGTACATAAATATTTTATTTT [XGTACX_site5129],8.86 ± 0.46
12,AGGAAAAAAAGTAGCACACAAATATTTATAATATAT [CACACA_site2437],9.11 ± 0.57
13,CGTAGCCGCACTAACACACACAAATATACGCAATCA [CACACA_site2898],9.39 ± 0.43
14,AAAAAAAAAAAAAATAATAAATAAATAAATAAATAA [GTGCAC_negctrl_site505],8.29 ± 0.71
15,ATATTTTGGGTGTTGTTTTTTTTTAAAACTCTTTAA [CACACA_negctrl_site1255],8.67 ± 0.42
16,TTACTATTTCACTGTGCATGCAACAAAAATCTATCT [TGCATGCA_site808],8.9 ± 0.26
17,ATTAGTTTATATGAATGATTTTTCTTTTTTTTTTTT [CACACA_negctrl_site88],8.47 ± 0.57
18,TTATTTTATCACACATGTACATATGTTAATTTTTTT [XGTACX_site5598],8.91 ± 0.49
19,AAATTTATATATAGTTGTACAAAAATATGTTTCGTA [XGTACX_site4801],8.8 ± 0.54

row,Sequence,gcPBM binding intensity (ln)
1,AAAATAAAAAGAAATAAATTAACAGTAAGGAAAAAA [CACACA_negctrl_site1105],8.69 ± 0.57
2,TGAATAATCAATAGTACACACATATAAATATATATA [CACACA_site2813],9.05 ± 0.35
3,AAGAAAAGTAAATATGCATGTAGGGTAGGTTATTTT [TGCATGCA_site46],8.93 ± 0.54
4,CCTTTTTCTAATGGATGTACTTATTATATACATTAT [XGTACX_site281],8.88 ± 0.44
5,ATATTTTTTCTGAACGGTACAGAATTTTTCAAGATT [XGTACX_site484],8.72 ± 0.44
6,TATATATATCTGTATACACACATATGTATGTTATGT [CACACA_site6090],9.48 ± 0.44
7,TGCTCATGAGGTCAGAGTACAAAATAGTAAATGTAT [XGTACX_site2973],8.97 ± 0.52
8,TTTTGAATTAAACAAGCATGCTTTATTTACTTCTTA [TGCATGCA_site289],8.68 ± 0.52
9,TAATTCATCCTATGCACACACAATACCAAAATGTGC [CACACA_site4269],9.37 ± 0.31
10,TAATTTATTAATAATTGTACAGATATTATACTTAAA [XGTACX_site8947],8.29 ± 0.5
11,TTTATTTTTATTTTTGTGCACGGGATTAAATAAAAG [GTGCAC_site9842],8.39 ± 0.42
12,TTTTTTTTTTTTTTTCTTTTTTATTCTCACAAAAAA [CACACA_negctrl_site1790],8.07 ± 0.44
13,AACATTTATATTTAAGTGCAGATGCTGTAATTTAGA,8.55 ± 0.52
14,ATGCGTTCATACATACATACATACATACAATTTGTA [TGCATGCA_negctrl_site50],9.04 ± 0.35
15,GAACAAATTACAAGTTGTACTTTATGTAAATTATTA [XGTACX_site5304],8.66 ± 0.45
16,TTTTTATAACAAAGTATTTAAATAATTTATACTAAT [TGCATGCA_negctrl_site104],8.18 ± 0.46
17,GATTATCTTCAAGTATGTACACACTATATATAATAA [XGTACX_site5108],8.84 ± 0.43
18,AATAAATAGAGGAAATGTACATATAAAAATAATTTC [XGTACX_site2454],9 ± 0.49
19,TTAACATCTTCGTTGACACACAAAAAAAAAAATAAT [CACACA_site1819],8.71 ± 0.42

row,Sequence,gcPBM binding intensity (ln)
1,TACACAAACAGACACACACACACACGCGCACAAAAA [CACACA_site7192],10.06 ± 0.042
2,ATTATAAATATATTTTGTACTTAAAAGGAAAAAAAA [XGTACX_site55],8.21 ± 0.46
3,ATTACATGTATACATGTCAACACGTATAAAAAAAAA [CACACA_negctrl_site1154],8.89 ± 0.45
4,AATAAGCATAGACACACACACAAAAAAAAAAAAAAA [CACACA_site6476],9.51 ± 0.64
5,ATATAACAGAAACACACACACATATATATATATTAT [CACACA_site4140],9.81 ± 0.26
6,ATAAATGATAGTAAAAGTACACAAAATGTTTTAAAA [XGTACX_site1623],8.66 ± 0.57
7,TATTTTTATATATAATCACACATTGGAATGTTCTAA [CACACA_site5540],8.67 ± 0.44
8,TTCTTTATGGAAGTGTAAAAAAAGAAATACTTTTTT [CACACA_negctrl_site915],8.19 ± 0.51
9,GCACGAAACAATGTATATATATATATATATATATAT [GTGCAC_negctrl_site412],10.32 ± 0.078
10,TAAGTAAACTTTCTATGTACATATTTTCAAATATTA [XGTACX_site6260],8.59 ± 0.43
11,CTTATATATACATATACACACACACCCATATATATA [CACACA_site8705],9.59 ± 0.13
12,GGTATAATTCATATAACACACATTTCAATGTTAAAA [CACACA_site2172],8.86 ± 0.43
13,TGTATTAATTTGTAATGTACACATATATGTATTATA [XGTACX_site4152],8.82 ± 0.33
14,CCAAAATTTATAAATTGTACATATTTTTAAATTCTT [XGTACX_site833],8.37 ± 0.4
15,GATAAATAATAATAAGGTACACATAAAATATTCCTT [XGTACX_site2963],8.8 ± 0.47
16,TTAACAAAATTTTTAACACACAAAAAAAAAAAAAAA [CACACA_site1828],8.55 ± 0.42
17,ATGTAGACAACATATGAACACACAAAATATTTTTTT [CACACA_site8955],9.06 ± 0.4
18,TCTTTTGTTTAACCTACATGCAGAATATAAGTCTTC [TGCATGCA_site99],8.64 ± 0.41
